According to article PMC9974300:
No constants are given. Whether binding was seen depends on the method and setting. For part of these data: Binding seen in cells or lysates may run through a third protein. Some results given as binding are weak or reduced against the parent protein; the word gives no strength.

T1: 2-oxoglutarate dehydrogenase complex subunit E2o (DLST), mouse (mouse (endogenous in mouse heart mitochondria)) (UniProt Q9D2G2)
T1 sequence: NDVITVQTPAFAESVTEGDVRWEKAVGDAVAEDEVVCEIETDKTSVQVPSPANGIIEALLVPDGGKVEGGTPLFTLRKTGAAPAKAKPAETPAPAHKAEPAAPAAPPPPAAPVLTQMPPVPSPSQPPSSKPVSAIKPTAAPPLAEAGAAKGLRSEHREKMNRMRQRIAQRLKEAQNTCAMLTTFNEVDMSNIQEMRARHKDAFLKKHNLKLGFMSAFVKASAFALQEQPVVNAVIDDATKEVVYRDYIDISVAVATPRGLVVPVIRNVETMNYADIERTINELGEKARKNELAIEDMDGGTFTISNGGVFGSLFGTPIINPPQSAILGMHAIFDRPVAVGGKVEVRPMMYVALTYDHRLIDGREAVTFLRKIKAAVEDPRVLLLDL

T2: 2-oxoglutarate dehydrogenase complex subunit E3 (DLD), mouse (mouse (endogenous in mouse heart mitochondria)) (UniProt O08749)
T2 sequence: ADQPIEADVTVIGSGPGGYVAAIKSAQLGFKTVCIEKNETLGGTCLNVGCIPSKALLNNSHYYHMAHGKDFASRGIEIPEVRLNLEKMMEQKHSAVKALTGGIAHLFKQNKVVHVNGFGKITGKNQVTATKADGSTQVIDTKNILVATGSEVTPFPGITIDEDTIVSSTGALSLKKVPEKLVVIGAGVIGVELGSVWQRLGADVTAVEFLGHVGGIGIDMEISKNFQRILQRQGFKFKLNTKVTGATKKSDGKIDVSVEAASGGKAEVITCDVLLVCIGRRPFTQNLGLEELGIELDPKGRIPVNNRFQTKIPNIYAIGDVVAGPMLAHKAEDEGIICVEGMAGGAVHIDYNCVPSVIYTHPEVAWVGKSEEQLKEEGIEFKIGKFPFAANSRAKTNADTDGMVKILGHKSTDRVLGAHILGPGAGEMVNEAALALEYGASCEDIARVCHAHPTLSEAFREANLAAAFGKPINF

T3: 2-oxoglutarate dehydrogenase complex subunit E1o (OGDH), mouse (mouse (endogenous in mouse heart mitochondria)), Q60597
T3 chain: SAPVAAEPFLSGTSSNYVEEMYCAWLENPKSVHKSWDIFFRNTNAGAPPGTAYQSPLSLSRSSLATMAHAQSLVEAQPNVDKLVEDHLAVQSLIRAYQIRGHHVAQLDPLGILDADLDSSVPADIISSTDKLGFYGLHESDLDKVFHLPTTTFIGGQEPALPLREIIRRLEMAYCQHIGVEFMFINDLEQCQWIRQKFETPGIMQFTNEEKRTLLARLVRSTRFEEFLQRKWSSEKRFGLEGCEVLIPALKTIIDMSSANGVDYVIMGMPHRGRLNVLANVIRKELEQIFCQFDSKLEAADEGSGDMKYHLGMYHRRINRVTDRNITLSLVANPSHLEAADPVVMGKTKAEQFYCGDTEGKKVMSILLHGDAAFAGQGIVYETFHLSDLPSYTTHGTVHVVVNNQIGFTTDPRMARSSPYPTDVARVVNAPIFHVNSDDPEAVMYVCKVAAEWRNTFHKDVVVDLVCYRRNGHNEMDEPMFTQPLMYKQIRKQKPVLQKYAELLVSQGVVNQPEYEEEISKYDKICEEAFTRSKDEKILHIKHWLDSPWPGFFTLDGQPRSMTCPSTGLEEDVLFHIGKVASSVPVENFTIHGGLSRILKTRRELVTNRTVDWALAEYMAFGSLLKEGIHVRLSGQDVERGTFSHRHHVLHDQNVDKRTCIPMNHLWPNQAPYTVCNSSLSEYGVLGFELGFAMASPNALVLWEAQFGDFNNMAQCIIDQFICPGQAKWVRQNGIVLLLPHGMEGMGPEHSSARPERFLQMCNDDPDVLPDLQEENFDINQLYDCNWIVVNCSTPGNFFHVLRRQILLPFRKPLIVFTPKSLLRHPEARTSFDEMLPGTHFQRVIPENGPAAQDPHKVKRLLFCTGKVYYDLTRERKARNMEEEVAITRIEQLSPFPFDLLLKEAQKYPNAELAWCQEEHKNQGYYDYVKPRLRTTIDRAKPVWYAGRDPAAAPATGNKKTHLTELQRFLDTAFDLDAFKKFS

T4: 2-oxoglutarate dehydrogenase complex subunit E3 (DLD), bovine (bovine (endogenous in bovine heart mitochondria)) (UniProt F1N206)
T4 sequence: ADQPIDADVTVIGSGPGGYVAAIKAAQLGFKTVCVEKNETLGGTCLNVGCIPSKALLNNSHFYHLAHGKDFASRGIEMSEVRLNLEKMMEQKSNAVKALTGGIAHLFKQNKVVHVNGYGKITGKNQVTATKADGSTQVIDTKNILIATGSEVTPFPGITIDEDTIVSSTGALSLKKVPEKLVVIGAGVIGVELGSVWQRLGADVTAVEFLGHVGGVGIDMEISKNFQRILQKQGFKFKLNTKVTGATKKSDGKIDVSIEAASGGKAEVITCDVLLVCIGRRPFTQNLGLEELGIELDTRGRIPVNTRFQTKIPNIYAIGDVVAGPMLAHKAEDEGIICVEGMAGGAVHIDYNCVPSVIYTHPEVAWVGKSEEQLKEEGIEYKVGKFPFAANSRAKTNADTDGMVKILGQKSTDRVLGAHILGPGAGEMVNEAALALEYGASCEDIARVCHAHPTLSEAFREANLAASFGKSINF


Assays:
[1] = target: T1, 2-oxoglutarate dehydrogenase complex subunit E2o (DLST), mouse (mouse (endogenous in mouse heart mitochondria)); assay: cross-linking; XL-MS of mouse heart mitochondria, 1 mg/ml protein in MIB buffer, 0.5 mM DSSO, 45 min at 15°C; merged with earlier data of the laboratory (ref. 36)
[2] = target: T2, 2-oxoglutarate dehydrogenase complex subunit E3 (DLD), mouse (mouse (endogenous in mouse heart mitochondria)); assay: as above
[3] = target: T3, 2-oxoglutarate dehydrogenase complex …; assay: as above; details: remark: other sources report otherwise
[4] = target: T4, 2-oxoglutarate dehydrogenase complex subunit E3 (DLD), bovine (bovine (endogenous in bovine heart mitochondria)); assay: cross-linking; XL-MS of intact bovine heart mitochondria cross-linked with DSSO, PhoX or DMTMM (Lys-Lys and Lys-Asp/Glu cross-links); sample preparation in ref. 35
[5] = target: T4, 2-oxoglutarate dehydrogenase complex subunit E3 (DLD), bovine (bovine (endogenous in bovine heart mitochondria)); assay: native gel or EMSA; complexome profiling: bovine heart mitochondria, untreated or cross-linked (PhoX or DMTMM), separated by BN-PAGE (3 to 10%), gel slices read by mass spectrometry

| binding [1] | binding [2] | binding [4] | Binder | other results |
| --- | --- | --- | --- | --- |
| binds | binds |  | MRPS36, mouse (protein, UniProt Q9CQX8 1-102) MGSKMASATRVVQVVKPHAPLIKFPNRRDKPKLSASEALGSAALPSHSSAISQHSKGSTSPDLLMHQGPPDTAEIIKSLPQKYRRKPMSQEEMEFIQRGGPE |  |
|  |  |  | MRPS36, mouse, Q9CQX8 1-102 (protein) MGSKMASATRVVQVVKPHAPLIKFPNRRDKPKLSASEALGSAALPSHSSAISQHSKGSTSPDLLMHQGPPDTAEIIKSLPQKYRRKPMSQEEMEFIQRGGPE | binding [3]: no binding |
| binds |  |  | 2-oxoglutarate dehydrogenase complex subunit E3 (DLD), mouse (enzyme, UniProt O08749 36-509) ADQPIEADVTVIGSGPGGYVAAIKSAQLGFKTVCIEKNETLGGTCLNVGCIPSKALLNNSHYYHMAHGKDFASRGIEIPEVRLNLEKMMEQKHSAVKALTGGIAHLFKQNKVVHVNGFGKITGKNQVTATKADGSTQVIDTKNILVATGSEVTPFPGITIDEDTIVSSTGALSLKKVPEKLVVIGAGVIGVELGSVWQRLGADVTAVEFLGHVGGIGIDMEISKNFQRILQRQGFKFKLNTKVTGATKKSDGKIDVSVEAASGGKAEVITCDVLLVCIGRRPFTQNLGLEELGIELDPKGRIPVNNRFQTKIPNIYAIGDVVAGPMLAHKAEDEGIICVEGMAGGAVHIDYNCVPSVIYTHPEVAWVGKSEEQLKEEGIEFKIGKFPFAANSRAKTNADTDGMVKILGHKSTDRVLGAHILGPGAGEMVNEAALALEYGASCEDIARVCHAHPTLSEAFREANLAAAFGKPINF |  |
|  |  | no binding | 2-oxoglutarate dehydrogenase complex subunit E1o (OGDH), bovine (enzyme, UniProt Q148N0 41-1023) TAPVAAEPFLSGTSSNYVEEMYYAWLENPKSVHKSWDIFFRNTNAGAPPGTAYQSPLPLSPGSLSAVARAGPLVEAQPNVDKLVEDHLAVQSLIRAYQIRGHHVAQLDPLGILDADLDSSVPADIISSTDKLGFYGLDESDLDKVFHLPTTTFIGGQESALPLREIIRRLEMAYCQHIGVEFMFINDLEQCQWIRQKFETPGVMQFTNEEKRTLLARLVRSTRFEEFLQRKWSSEKRFGLEGCEVLIPALKTIIDKSSENGVDYVIMGMPHRGRLNVLANVIRKELEQIFCQFDSKLEAADEGSGDVKYHLGMYHRRINRVTDRNITLSLVANPSHLEAADPVVMGKTKAEQFYCGDTEGKKVMSILLHGDAAFAGQGIVYETFHLSDLPSYTTHGTVHVVVNNQIGFTTDPRMARSSPYPTDVARVVNAPIFHVNSDDPEAVMYVCKVAAEWRSTFHKDVVVDLVCYRRNGHNEMDEPMFTQPLMYKQIRKQKPVLQKYAELLVSQGVVNQPEYEEEISKYDKICEEAFARSKDEKILHIKHWLDSPWPGFFTLDGQPRSMTCPSTGLTEDILTHIGNVASSVPVEDFTIHGGLSRILKTRGELVKNRTVDWALAEYMAFGSLLKEGIHIRLSGQDVERGTFSHRHHVLHDQNVDKRTCIPMNHLWPNQAPYTVCNSSLSEYGVLGFELGFAMASPNALVLWEAQFGDFHNTAQCIIDQFICPGQAKWVRQNGIVLLLPHGMEGMGPEHSSARPERFLQMCNDDPDVLPDLKEANFDINQLYDCNWVVVNCSTPGNFFHVLRRQILLPFRKPLIIFTPKSLLRHPEARSNFDEMLPGTHFQRVIPEDGPAAQNPGNVKRLLFCTGKVYYDLTRERKARDMVEQVAITRIEQLSPFPFDLLLQEVQKYPSAELAWCQEEHKNQGYYDYVKPRLRTTISRAKPVWYAGRDPAAAPATGNKKTHLTELQRLLDTAFDLDAFKNFS |  |
|  |  | binds | MRPS36, bovine (protein, UniProt P82908 1-103) MMGSKMASASRVVQVVKPHTPLIRFPDRRDNPKPNVSEVLRSAGLPSHTSSISQHSKGSKSPDWLMHQGPPDTAEMIKTLPQKYRRKLVSQEEIEFIQRGGPE | binding [5]: binds |
| binds | binds weakly |  | 2-oxoglutarate dehydrogenase complex subunit E1o (OGDH), mouse (enzyme, UniProt Q60597 41-1023) SAPVAAEPFLSGTSSNYVEEMYCAWLENPKSVHKSWDIFFRNTNAGAPPGTAYQSPLSLSRSSLATMAHAQSLVEAQPNVDKLVEDHLAVQSLIRAYQIRGHHVAQLDPLGILDADLDSSVPADIISSTDKLGFYGLHESDLDKVFHLPTTTFIGGQEPALPLREIIRRLEMAYCQHIGVEFMFINDLEQCQWIRQKFETPGIMQFTNEEKRTLLARLVRSTRFEEFLQRKWSSEKRFGLEGCEVLIPALKTIIDMSSANGVDYVIMGMPHRGRLNVLANVIRKELEQIFCQFDSKLEAADEGSGDMKYHLGMYHRRINRVTDRNITLSLVANPSHLEAADPVVMGKTKAEQFYCGDTEGKKVMSILLHGDAAFAGQGIVYETFHLSDLPSYTTHGTVHVVVNNQIGFTTDPRMARSSPYPTDVARVVNAPIFHVNSDDPEAVMYVCKVAAEWRNTFHKDVVVDLVCYRRNGHNEMDEPMFTQPLMYKQIRKQKPVLQKYAELLVSQGVVNQPEYEEEISKYDKICEEAFTRSKDEKILHIKHWLDSPWPGFFTLDGQPRSMTCPSTGLEEDVLFHIGKVASSVPVENFTIHGGLSRILKTRRELVTNRTVDWALAEYMAFGSLLKEGIHVRLSGQDVERGTFSHRHHVLHDQNVDKRTCIPMNHLWPNQAPYTVCNSSLSEYGVLGFELGFAMASPNALVLWEAQFGDFNNMAQCIIDQFICPGQAKWVRQNGIVLLLPHGMEGMGPEHSSARPERFLQMCNDDPDVLPDLQEENFDINQLYDCNWIVVNCSTPGNFFHVLRRQILLPFRKPLIVFTPKSLLRHPEARTSFDEMLPGTHFQRVIPENGPAAQDPHKVKRLLFCTGKVYYDLTRERKARNMEEEVAITRIEQLSPFPFDLLLKEAQKYPNAELAWCQEEHKNQGYYDYVKPRLRTTIDRAKPVWYAGRDPAAAPATGNKKTHLTELQRFLDTAFDLDAFKKFS |  |
